PMC10668032
Some of the results follow. At the low end of the ranking the order means little.

The sequences below were run against SIX1-Q177R homeodomain (UniProt Q15475) (assay: universal protein binding microarray). Conditions: Universal all-10-mer PBM (8x60K, AMADID 030236), 300 nM GST-tagged protein, Alexa Fluor 488 anti-GST; buffer, salt, pH and temperature not stated; high values mean tight binding; most listed sequences are background and not binding sites; double strand, one strand shown.

| Sequence | binding signal |
| --- | --- |
| GCCTTGCC | -0.344 E-score |
| ACCATAAA | 0.00583 E-score |
| CACTACTG | 0.171 E-score |
| ACGATGAG | -0.0408 E-score |
| GATTAAAA | -0.213 E-score |
| AAATTGAG | -0.198 E-score |
| TGCCAGAA | -0.129 E-score |
| AGCTTCTA | -0.249 E-score |
| CGAAAACC | -0.0505 E-score |
| GTCCTTAA | -0.0211 E-score |
| CCATCGCG | -0.0716 E-score |
| ACAACAGC | -0.12 E-score |
| ACCAAACG | -0.0506 E-score |
| CTGACATC | -0.242 E-score |
| AGTGCATG | 0.0709 E-score |
| ACTGGGGG | 0.117 E-score |
| CTGGGGAA | -0.129 E-score |
| CTTACAGA | -0.151 E-score |
| ATTCCTCA | -0.187 E-score |
| GGAGCAAC | -0.0873 E-score |
| ATGCGGCA | -0.149 E-score |
| CATTCAGC | -0.156 E-score |
| AGAGCATA | -0.229 E-score |
| TACGGAGA | -0.0464 E-score |
| GCGACATA | -0.208 E-score |

| Sequence | binding signal |
| --- | --- |
| GCAGAGCA | -0.0486 E-score |
| AAGTGTTC | 0.285 E-score |
| ATATAGAT | -0.163 E-score |
| CATAGTGA | -0.0741 E-score |
| ACTTACTG | -0.11 E-score |
| CCCCCCTA | 0.232 E-score |
| CAGCATGC | -0.269 E-score |
| AATCAGAA | -0.142 E-score |
| AAACTGGG | -0.139 E-score |
| CACTCGGG | 0.225 E-score |
| GCAGCCAC | -0.188 E-score |
| CCATCGGG | 0.00323 E-score |
| TGCACACA | 0.144 E-score |
| CCGAGGCG | -0.0343 E-score |
| GCTAATCC | 0.0769 E-score |
| CAACTACA | 0.247 E-score |
| ACAACTCC | -0.0321 E-score |
| CCGCACCA | 0.16 E-score |
| AATTAGGA | -0.169 E-score |
| CAGACACC | 0.456 E-score |
| ATGTCGGG | 0.199 E-score |
| AGACTGGA | -0.0648 E-score |
| GCCAAAGC | -0.1 E-score |
| GCCCTGGA | 0.0652 E-score |
| GGAGGTAA | -0.142 E-score |

| Sequence | binding signal |
| --- | --- |
| CGAGCTAA | -0.144 E-score |
| CGACGCGC | 0.0472 E-score |
| AAGATTGC | -0.163 E-score |
| GCTCACAA | -0.0753 E-score |
| ATCTACAT | -0.23 E-score |
| ACGTTTTG | -0.209 E-score |
| CATTGTTC | 0.00531 E-score |
| ATCAGCGC | -0.00585 E-score |
| ACCTAGAT | 0.0693 E-score |
| ATCACAAT | -0.0971 E-score |
| GGACAGCA | -0.107 E-score |
| GCCAACCA | -0.22 E-score |
| AACACGGC | 0.35 E-score |
| GGTGCATA | 0.195 E-score |
| CTAGCAAA | 0.173 E-score |
| ATATTTCG | -0.0673 E-score |
| AGGAACTA | -0.124 E-score |
| ATGCGCAT | -0.107 E-score |
| CTGCATTA | 0.0596 E-score |
| AGAATTGA | -0.0789 E-score |
| GTCTATTA | -0.0908 E-score |
| AAGGTCCT | -0.065 E-score |
| CCGCCCCA | 0.239 E-score |
| ACGACGCT | -0.106 E-score |
| TAGCAAGA | -0.0253 E-score |

| Sequence | binding signal |
| --- | --- |
| GCAAGAAC | -0.141 E-score |
| ATGAAAAC | -0.00859 E-score |
| CGCCTTGA | 0.0104 E-score |
| ACTAGCAT | -0.157 E-score |
| AAACTAAA | -0.199 E-score |
| AGATAGCT | -0.202 E-score |
| AGACTGCC | -0.184 E-score |
| AGTATACA | 0.235 E-score |
| CGTTCAAA | -0.206 E-score |
| CGGGCCTA | -0.167 E-score |
| CGTCATTA | -0.0324 E-score |
| GTACGCAC | 0.0455 E-score |
| AAAGATAC | 0.115 E-score |
| ACTATTAG | -0.0437 E-score |
| ATCGTAAA | -0.0685 E-score |
| AGTACCTC | 0.0726 E-score |
| TCAGGTAA | -0.182 E-score |
| AGTAGGAC | -0.139 E-score |
| GTCAGGGA | -0.00635 E-score |
| CTATAAAC | -0.0689 E-score |
| ATAGTCTC | -0.141 E-score |
| AGCTTGAA | -0.281 E-score |
| GAGGTATC | 0.337 E-score |
| ACTTTTCC | -0.144 E-score |
| AATCAGCG | -0.185 E-score |

| Sequence | binding signal |
| --- | --- |
| AGCGAGAG | -0.0347 E-score |
| CCACCGGG | 0.058 E-score |
| CTTCGAAC | -0.109 E-score |
| ACTATAGA | -0.0766 E-score |
| AAAGTATG | -0.0784 E-score |
| TCAGGACA | -0.0188 E-score |
| AAGTTATA | -0.0119 E-score |
| ACACAGAC | 0.123 E-score |
| AAGGAAAT | -0.2 E-score |
| AGGCGTCG | 0.0453 E-score |
| GCAAACAA | 0.0233 E-score |
| GCACACCA | 0.401 E-score |
| TGGTCACA | -0.0477 E-score |
| ATGCCATA | -0.139 E-score |
| ACTTAGTG | -0.0167 E-score |
| GACTGCAA | -0.328 E-score |
| AGCCGGCT | -0.107 E-score |
| TCAAACAA | -0.139 E-score |
| ATTATGGA | -0.0211 E-score |
| ATCAGGGA | 0.0618 E-score |
| CAGGGAAA | -0.245 E-score |
| CATACCGC | -0.0219 E-score |
| TAGGCTGA | -0.019 E-score |
| AGCTTGCA | -0.239 E-score |
| GGCTAGGA | -0.238 E-score |

| Sequence | binding signal |
| --- | --- |
| CGCATTGA | -0.0604 E-score |
| GCTACAAA | -0.212 E-score |
| GCGCCAAA | -0.0832 E-score |
| ACTGCGGA | 0.00579 E-score |
| GCCTTAGC | -0.118 E-score |
| CCTTGAGA | 0.0667 E-score |
| CGACTCCG | 0.227 E-score |
| GGCTGCAA | -0.0681 E-score |
| CTGGGCAA | -0.175 E-score |
| TCCGGCGA | -0.167 E-score |
| ACTCAGAG | -0.0267 E-score |
| CGAGCAAG | -0.019 E-score |
| TAGGTACA | 0.179 E-score |
| ACCCTCGT | 0.191 E-score |
| CCTCACCC | 0.154 E-score |
| GACCCAAA | -0.0846 E-score |
| GCTCTGGA | -0.0583 E-score |
| AGGAAATG | -0.118 E-score |
| CACTATAG | 0.192 E-score |
| AGTATAGC | -0.23 E-score |
| AATGGCAG | -0.131 E-score |
| GCCCGAAC | -0.208 E-score |
| AATGACTA | -0.128 E-score |
| ATAAATTC | -0.0814 E-score |
| AGGAAGAT | -0.0897 E-score |

| Sequence | binding signal |
| --- | --- |
| AGACGTGG | -0.0945 E-score |
| AACTAAGG | -0.288 E-score |
| CAATTGGG | -0.0255 E-score |
| GCCAAACC | -0.118 E-score |
| GGCCGATA | -0.13 E-score |
| AGACGTAA | -0.0671 E-score |
| AACCAATA | -0.132 E-score |
| CAAGGTGA | 0.0664 E-score |
| GCCCGACC | -0.0715 E-score |
| AGTGTCCG | 0.365 E-score |
| CAAATTAC | -0.0378 E-score |
| ACTACGCC | -0.0222 E-score |
| AGTGTTGC | 0.321 E-score |
| GCGGCTTA | -0.205 E-score |
| CATAAGCA | 0.0155 E-score |
| TCGTCCAA | -0.193 E-score |
| CAACCGTC | -0.231 E-score |
| ACATAATG | -0.137 E-score |
| ACGACACT | 0.428 E-score |
| CTCCAGAA | -0.0585 E-score |
| ATCGCTGA | -0.18 E-score |
| AACCCTCT | 0.00303 E-score |
